Measurements as given in PubChem BioAssay (NCATS).
Where “and” joins values, the source holds several entries; their conditions need not be identical. Equal entries are not always repeated. Inconclusive means that the source gave no clear call. Such entries were picked first, then a sample of the others. Potencies of inconclusive entries are doubtful fits and often do not repeat. Some structures have more than one record in an assay (separate samples or runs), and their calls can disagree. Calls of active or inactive are those of the source. Calls come from the whole dose curve; as a rule, active = well fitted inhibition curve with a large enough effect; inconclusive = small, poorly fitted or top-dose-only effect; inactive = flat fitted curve, though single readings scatter.
Potency is the fitted concentration of half-maximal effect; tags give direction and shape of the fitted curve.

Assay: qHTS for Inhibitors of Plasmodium falciparum (HB3) proliferation (AID 504318); note: nearly all actives have a fitted effect of over 60% in size;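 for activity change, negative = inhibition: 0% = DMSO vehicle and -100% = artemisinin control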
Details: P. falciparum HB3 in erythrocytes, SYBR Green DNA, 72 h; activity change, negative = inhibition: at 7.21 µM (top of the series)
Description: Plasmodium falciparum is a virulent malarial parasite that kills 1-2 million people worldwide each year. Malaria not only inflicts tremendous suffering and morbidity on the human population, but has dramatically influenced the course of civilization with profound sociological and economic implications (Shah, S. 2010). Transmitted by mosquitoes, the sporozoite form of the parasite enters the blood stream to infect hepatocytes, where they become merozoites that infect red blood cells (erythrocytes). Within erythrocytes, merozoites begin a […] cycle of growth and division, after which the parasite is released to infect new red blood cells. Gametocytes, which form within erythrocytes as well, circulate in the bloodstream and are ingested by the mosquito, thereby completing the life cycle (see CDC website). To profile malarial lines for differential chemical responses and to identify inhibitors of malarial growth, an assay that measures P. falciparum growth and replication within erythrocytes was employed. This assay uses a DNA binding fluorescent dye (SYBR Green) to detect parasite DNA following cell lysis. Because mature erythrocytes lack DNA, only Plasmodium-derived DNA is detected. The P. falciparum line cp250, derived from a malarial isolate from Cambodia, (Mu, J., et al. 2010) was added to the panel of lines, Dd2, HB3, 7G8 and GB4 in this study. Laboratory of Assay Development and Screening Technology [ADST] and NIH Chemical Genomics Center [NCGC] Boston University, Chemistry Department, Center for Chemical Methodology and Library Development [CMLD-BU] NIH National Institute of Allergy and Infectious Diseases [NIAID]
ADST Assay Protocol Summary: The 1536-well SYBR Green viability assay was based on the method of Bennett et al (2004) and described previously in 1536-well format (Yuan J., et al. 2009). For screening 3 ul culture medium was dispensed into 1536 well black clear bottom plates (Aurora Biotechnologies) using a Multidrop Combi (Thermo Fisher Scientific Inc.), 23 nL compounds in DMSO were added by a pin transfer (Cleveland, P.H. and Koutz, P.J, 2005) using a pin tool-based delivery system (Kalypsys), and 5 ul of erythrocytes infected with P. falciparum one of five lines (cp250, Dd2, HB3, 7G8 or GB4, 0.3% parasitemia, 2.5% hematocrit final concentration) were added. The plates were incubated at 37C in a humidified incubator in 5% CO2 for 72 h, and 2 ul lysis buffer (20 mM Tris HCl, 10 mM EDTA, 0.16% saponin, 1.6% triton X, 10X SYBR Green I (supplied as 10,000X final concentration by Invitrogen) was added to each well. The plates were mixed for 25 sec with gentle shaking and incubated overnight at room temperature in the dark. The following morning, fluorescence intensity at 485(14) nm excitation and 535(25) nm emission wavelengths was measured on an EnVision (Perkin Elmer) plate reader. Plate reads were normalized relative to the control inhibitor (0.29 uM artemisinin) and vehicle (DMSO) wells present on each plate and then corrected by an algorithm using vehicle-only control plates at the beginning and end of the compound plate stack. References Shah, S. (2010). The Fever: how malaria has ruled humankind for 500,000 years. New York, Sarah Crichton Books. CDC web site, http://www.cdc.gov/malaria/about/biology/index.html Mu, J., Myers, R.A., Jiang, H., Liu, S., Ricklefs, S., Waisberg, M., Chotivanich, K., Wilairatana, P., Krudsood, S., White, N.J., et Plasmodium falciparum genome-wide scans for positive selection, recombination hot spots and resistance to antimalarial drugs Nature Genetics 2010, 42, pp 268-271 Bennett TN, Paguio, M., Gligorijevic, B., Seudieu, C., Kosar, A. D., Davidson, E., and Roepe, P. D. Novel, rapid, and inexpensive cell-based quantification of antimalarial drug efficacy Antimicrobial Agents Chemother. 2004, 48(5): pp 1807-10 Yuan J, Johnson RL, Huang RL, Wichterman J, Jiang HY, Hayton K, Fidock DA, Wellems TE, Inglese J, Austin CP, Su XZ. […]
In the case of `CCCCC1=CC2=CC(=O)C(C)(OC(=O)CC)C(=O)C2=CN1CC(C)C` (stereo not given), the “activity change, negative = inhibition” value is reported as inactive: -4.86%. In the case of `CCCCC1=CC2=CC(=O)C(C)(OC(=O)CC)C(=O)C2=CN1CCc1ccc(Br)cc1` (stereo not given), the Potency is reported as inconclusive: 4.26 µM [inhibitor, single point]. For `CC1=CC[C@@H](COc2ccccc2)O[C@@]2(C1)C(=O)N(CC1CC1)c1ccccc12`, the Potency was inconclusive: 0.953 µM [inhibitor, partial curve]. With `COC1=C[C@@H](C(=O)N[C@H]2CCCC[C@H]2NC(C)=O)[C@@H](C)[C@H](c2ccccc2)CC1=O` the Potency was inconclusive: 1.69 µM [inhibitor, single point]. In the case of `CCOC(=O)OC[C@H]1O[C@H](c2ccc(C(C)=O)cc2)C=C[C@H]1Oc1ccc(-c2ccccc2)cc1`, the Potency is reported as inconclusive: 2.33 µM [inhibitor, partial curve]. With `C=CC[C@@H]1C=CC(ON=C(C)CCC(=O)OC[C@H]2O[C@H](C#Cc3ccccc3)C=C[C@H]2Oc2ccc(C)cc2)[C@H](CO)O1` (stereo not given in full) the “activity change, negative = inhibition” value was inactive: -6.6%. For `C=CCNC(=O)N1C2=NC(C(=O)OC)=C(C(=O)OC)[C@@H]3N(C)c4ccccc4[C@]23C[C@H]1CO`, the Potency was active: 2.94 µM. For `CCCCCCCC1=Cc2ccc(F)cc2C(C(C(C)=O)C(=O)OC)N1C(=O)OC` (stereo not given), the Potency was inconclusive: 1.69 µM [inhibitor, single point] and inactive. In the case of `CC12C=C(C=Cc3ccc(Br)cc3)C(C)(C1)C(c1ccc(Br)cc1)CC2=O` (stereo not given), the Potency is reported as active: 1.69 µM. In the case of `C[C@@H]1CC2CCCC2[C@]2(O1)C(=O)Nc1ccccc12` (stereo not given in full), the Potency is reported as inconclusive: 0.536 µM [inhibitor, single point]. In the case of `C=C(C)C(=O)C=CC=Cc1ccccc1`, the “activity change, negative = inhibition” value is reported as inactive: -3.51%. With `C[C@H]1CCCC(=O)N[C@@H](c2ccccc2)[C@@H](C)CCCC(=O)N[C@@H]1c1ccccc1` the Potency was inconclusive: 0.0213 µM [activator, full curve, poor fit]. For `COC(=O)N1C(/C=C/c2ccc3c(c2)OCO3)=Cc2ccccc2C1CC(C)=O` (stereo not given), the Potency was inconclusive: 1.9 µM [inhibitor, single point]. With `C=CCCCC=C(C)[C@H](OCc1ccc(OC)cc1)[C@H](CCC=C(C)C(N)=O)OC` the Potency was inconclusive: 1.51 µM [inhibitor, partial curve]. In the case of `CCOC(=O)N1C2=NC(C(=O)OC)=C(C(=O)OC)[C@@H]3Nc4ccccc4[C@]23C[C@H]1C(=O)OC`, the Potency is reported as inconclusive: 2.62 µM [inhibitor, partial curve] and inconclusive: 2.13 µM [inhibitor, partial curve, poor fit]. In the case of `COc1cccc([C@H]2NC(=O)CC=C[C@H](C)[C@@H](c3cccc(OC)c3)NC(=O)CC=C[C@H]2C)c1`, the Potency is reported as inconclusive: 1.2 µM [inhibitor, partial curve, poor fit]. With `COc1ccc(-c2nc3c(c4c2C[C@H](c2ccccc2)OC4)CN(S(=O)(=O)c2ccc(C)cc2)CC3)c(C)c1` the Potency was active: 2.13 µM. For `CC(C)CON=C1C[C@@H](O)[C@@H](O)[C@@H]2[C@H]3C(=O)N([C@@H](C)c4ccccc4)C(=O)[C@@H]3CC[C@H]12`, the Potency was inconclusive: 4.47 µM [inhibitor, partial curve, poor fit]. In the case of `O=C1CCCC2=C1[C@H]1O[C@](CCCCN3C(=O)c4ccccc4C3=O)(Cc3c1ccc1ccccc31)O2`, the Potency is reported as inconclusive: 1.69 µM [inhibitor, single point]. In the case of `C=CCOC(=O)NC(CC(=Nc1ccc(OC)cc1)C(=O)OC)c1ccccc1` (stereo not given), the “activity change, negative = inhibition” value is reported as inactive: -3.16%. With `COC(=O)CC1c2ccccc2C(Cc2ccc(OC)cc2)=C(C)N1C(=O)OC` (stereo not given) the Potency was inconclusive: 2.13 µM [inhibitor, partial curve]. For `COc1ccc(-c2nc3c(c4c2C[C@H](c2ccccc2)OC4)CN(C(=O)c2cc(I)ccc2F)CC3)c(C)c1`, the Potency was inconclusive: 3.29 µM [inhibitor, single point] and inconclusive: 4.26 µM [inhibitor, single point]. In the case of `COc1ccc(CN2C=C3C(=O)C(C)(OC(=O)CCc4ccccc4)C(=O)C=C3C=C2c2ccc(C#N)cc2)cc1` (stereo not given), the Potency is reported as inconclusive: 4.78 µM [inhibitor, single point]. In the case of `COc1cccc([C@@H]2Oc3ccc(OC)cc3C[C@@H]2OC(=O)N[C@H]2CCCc3ccccc32)c1`, the Potency is reported as inconclusive: 3.98 µM [inhibitor, partial curve, poor fit]. With `C=CC[C@@H]1C=C[C@H](ON=C(C)CCN2CCCc3nc(C)c(C)cc32)[C@H](CO)O1` the Potency was active: 2.51 µM. In the case of `Cc1ccc(C(=O)OC[C@H]2O[C@H](Cl)C[C@H]2OC(=O)c2ccc(C)cc2)cc1`, the Potency is reported as inconclusive: 3.01 µM [inhibitor, single point]. In the case of `CCOC(=O)CN1C(=O)N[C@@H](c2cccc(C(F)(F)F)c2)C(C(C)=O)=C1C`, the “activity change, negative = inhibition” value is reported as inactive: -2.2%. For `COC(=O)C1=C(C(=O)OC)[C@@H]2Nc3ccccc3[C@@]23C[C@@H](C(=O)OC)N(C(=O)N2CCNC2=O)C3=N1`, the Potency was inconclusive: 3.16 µM [inhibitor, single point]. With `C=CC1=C2C=C(C3CC3)N(c3ccc(OC)cc3)C=C2C(=O)C(C)(OC(=O)c2ccco2)C1=O` (stereo not given) the Potency was inconclusive: 4.26 µM [inhibitor, single point] and inconclusive: 1.69 µM [inhibitor, single point]. With `COC(=O)C1=C(C(=O)OC)[C@@H]2N(C)c3ccc(OC)cc3[C@@]23C[C@@H](C(=O)OC)N(S(=O)(=O)c2ccc([N+](=O)[O-])cc2)C3=N1` the Potency was inconclusive: 1.9 µM [inhibitor, single point]. For `CCN1C(=NCCc2cccs2)N[C@@H](CCc2ccccc2)[C@H](C(=O)NCCc2cccs2)[C@H]1C`, the Potency was inconclusive: 1.69 µM [inhibitor, partial curve]. In the case of `COc1ccc(-c2nc3c(c4c2C[C@H](c2ccccc2)OC4)CN(S(=O)(=O)c2c(C)noc2C)CC3)c(C)c1`, the Potency is reported as active: 2.13 µM. In the case of `C=C(C(=O)OCC)C(=O)c1ccccc1`, the “activity change, negative = inhibition” value is reported as inactive: 4.42%. For `COc1ccc(-c2nc3c(c4c2C[C@H](c2ccccc2)OC4)CN(C(=O)Cc2cccs2)CC3)c(C)c1`, the Potency was inconclusive: 4.78 µM [inhibitor, single point]. With `Cc1cc2c(c(=O)n1Cc1ccccc1)[C@H]1O[C@](CCCCN3C(=O)c4ccccc4C3=O)(Cc3ccccc31)O2` the Potency was active: 1.69 µM. For `COc1ccc([C@@H](NC(=O)C(F)(F)F)C2CCCC=C2c2ccccc2)cc1OC` (stereo not given in full), the Potency was inconclusive: 2.13 µM [inhibitor, single point]. For `COc1ccc(O[C@H]2C=C[C@@H](c3ccccc3)O[C@H]2CON=C[C@@H](C)[C@H](OCc2ccccc2)C(C)C)cc1`, the Potency was inconclusive: 3.98 µM [inhibitor, single point]. For `CCCCn1c(C)cc2c(c1=O)[C@H]1O[C@](CCCC)(Cc3cc(C#N)ccc31)O2`, the Potency was inconclusive: 4.26 µM [inhibitor, single point]. With `CC(C)=CCCC(C)=CCN1C(=O)[C@]2(O[C@H](COc3ccccc3)CC3=CCCC32)c2c(Br)cccc21` (stereo not given in full) the Potency was active: 1.69 µM. For `CCCCCCCC1=Cc2ccccc2C(CC(=O)c2ccccc2)N1C(=O)OC` (stereo not given), the Potency was inconclusive: 1.9 µM [inhibitor, single point] and inconclusive: 1.69 µM [inhibitor, partial curve, poor fit].
